Measured values as given in the supplement of paper PMC9446081.
Hit rate of the full screen: of about 39,000 compounds, about 220 (0.56%) showed activity. The list shows a part of the results.

system: Escherichia coli K-12 BW25113; assay: relative growth (OD600 normalised to plate interquartile mean) (fraction); higher = less growth inhibition, active = 0.2 or less; conditions: 50 µM; LB; incubation time: overnight (16-24 h)
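Note: static incubation at 37 °C against the wild-type strain, values averaged over two biological replicates.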

Q: How did the relative growth turn out when `CCCCCCCCCCNc1cc(CO)c2cc[nH]c2c1` was run?
A: inactive: 1

Q: For `C[C@@H]1CN([C@@H](C)CO)C(=O)c2cc(C#CCN(C)C)cnc2O[C@@H]1CN(C)C(=O)CN1CCOCC1`, which relative growth is on record?
A: inactive: 1.02

Q: With `C[C@H](CO)N1C[C@H](C)[C@@H](CN(C)S(C)(=O)=O)Oc2ncc(C#CCN(C)C)cc2C1=O` as the molecule, how does the relative growth read?
A: inactive: 0.978

Q: How did the relative growth turn out when `COCC#Cc1cnc2c(c1)C(=O)N([C@H](C)CO)C[C@H](C)[C@@H](CN(C)C(=O)Nc1ccccc1OC)O2` was run?
A: inactive: 0.986

Q: With `C[C@@H]1CN([C@@H](C)CO)C(=O)c2cccc(NS(C)(=O)=O)c2O[C@@H]1CN(C)S(=O)(=O)c1cccs1` as the molecule, how does the relative growth read?
A: inactive: 1

Q: For `C[C@@H]1CCCCO[C@H](CN(C)S(=O)(=O)c2cccs2)[C@@H](C)CN([C@H](C)CO)C(=O)c2cc(NC(=O)Nc3ccc(C(F)(F)F)cc3)ccc2O1`, which relative growth is on record?
A: inactive: 1.01

Q: How did the relative growth turn out when `C[C@@H]1CN([C@@H](C)CO)C(=O)Cc2cc(NC(=O)Cn3cnnn3)ccc2O[C@@H]1CN(C)Cc1ccc(-c2ccccc2)cc1` was run?
A: inactive: 1.02

Q: With `COc1ccc2c3c([nH]c2c1)[C@H](CO)N(C[C@]13CCN(CC1)C(=O)Nc1cccc(c1)F)C(=O)c1ccc(cc1)F` as the molecule, how does the relative growth read?
A: inactive: 1.02

Q: How did the relative growth turn out when `O=C(C1=C[C@@H](c2ccc(Br)cc2)C[C@@H](OCc2ccc(CO)cc2)O1)N1CCCCCCC1` was run?
A: inactive: 1.09

Q: For `C[C@H](CO)N1C[C@H](C)[C@@H](CN(C)S(=O)(=O)c2cn(C)cn2)Oc2ccc(NS(=O)(=O)c3ccccc3)cc2C1=O`, which relative growth is on record?
A: inactive: 0.981

Q: Which relative growth does the source give for `CCS(=O)(=O)N(C)C[C@H]1OCc2ccccc2-c2c(n(C)c3ccccc23)C(=O)N([C@H](C)CO)C[C@H]1C` here?
A: inactive: 1.05

Q: How did the relative growth turn out when `Cc1ccc(S(=O)(=O)Nc2ccc3c(c2)CC(=O)N([C@@H](C)CO)C[C@H](C)[C@H](CN(C)C(=O)Nc2cccc4ccccc24)O3)cc1` was run?
A: inactive: 1.02

Q: Which relative growth does the source give for `Cc1ccc(S(=O)(=O)Nc2ccc3c(c2)C(=O)N([C@H](C)CO)C[C@H](C)[C@H](CN(C)C(=O)Cc2ccccc2)OCCCC[C@H](C)O3)cc1` here?
A: inactive: 1.01

Q: How did the relative growth turn out when `C[C@@H]1CN([C@H](C)CO)C(=O)c2cccc(NC(=O)c3cnccn3)c2O[C@H]1CN(C)Cc1ccc(C(=O)O)cc1` was run?
A: inactive: 1.01

Q: For `C[C@@H]1CN([C@@H](C)CO)C(=O)Cc2cc(NC(=O)Cc3cn(C)c4ccccc34)ccc2O[C@H]1CN(C)C(=O)Nc1cccc2ccccc12`, which relative growth is on record?
A: inactive: 1.01

Q: With `Nc1nc(=O)c2[nH]c(=O)c(=O)[nH]c2[nH]1` as the molecule, how does the relative growth read?
A: inactive: 0.996

Q: For `NC(=O)[C@@H]1[C@H]2C(=O)O[C@H](c3ccccc3)[C@H](c3ccccc3)N2[C@H](c2ccc(OCCO)cc2)[C@@]12C(=O)Nc1ccc(C#CC3=CCCCC3)cc12`, which relative growth is on record?
A: inactive: 1.02

Q: `C[C@H](CO)N1C[C@H](C)[C@@H](CN(C)Cc2ccc(O)cc2)OCc2ccccc2-c2c(n(C)c3ccccc23)C1=O` was tested. Which relative growth did it give?
A: inactive: 1

Q: With `O=C1O[C@H](c2ccccc2)[C@H](c2ccccc2)N2[C@H]1[C@@H](C(=O)N1CCCCCCC1)[C@]1(C(=O)Nc3ccc(C#CCCO)cc31)[C@H]2c1ccc(O)cc1` as the molecule, how does the relative growth read?
A: inactive: 1.04

Q: With `C[C@@H]1CN([C@H](C)CO)C(=O)c2cc(NC(=O)CCN3CCOCC3)ccc2O[C@H]1CN(C)CC1CCCCC1` as the molecule, how does the relative growth read?
A: inactive: 1.02

Q: `Cc1noc(C)c1S(=O)(=O)Nc1ccc2c(c1)CC(=O)N([C@H](C)CO)C[C@H](C)[C@H](CN(C)Cc1ccc3c(c1)OCO3)O2` was tested. Which relative growth did it give?
A: inactive: 1

Q: How did the relative growth turn out when `C[C@H](CO)N1C[C@H](C)[C@H](CN(C)C(=O)Nc2ccccc2)Oc2c(NC(=O)C3CCOCC3)cccc2C1=O` was run?
A: inactive: 0.982

Q: Which relative growth does the source give for `C[C@H]1CN([C@@H](C)CO)C(=O)c2cccc(NC(=O)Nc3cccc4ccccc34)c2O[C@H]1CN(C)Cc1ccncc1` here?
A: inactive: 1.01

Q: For `C[C@@H]1CN([C@H](C)CO)C(=O)c2cc(NS(=O)(=O)c3ccc(Cl)cc3)ccc2O[C@H]1CN(C)S(=O)(=O)c1cn(C)cn1`, which relative growth is on record?
A: inactive: 0.994

Q: Which relative growth does the source give for `C[C@H]1CN([C@@H](C)CO)C(=O)Cc2cc(NS(=O)(=O)c3cn(C)cn3)ccc2O[C@@H]1CN(C)Cc1ccc2c(c1)OCO2` here?
A: inactive: 1.03

Q: For `C[C@H](CO)N1C[C@H](C)[C@H](CN(C)C(=O)c2ccc(N3CCN(C)CC3)cc2)OCc2cnnn2CCCC1=O`, which relative growth is on record?
A: inactive: 0.994

Q: With `C=CC[C@H](CC(=O)NCCO)C(=O)NC[C@H](OC(=O)[C@H](CC=C)CC(=O)OC(C)(C)C)c1ccccc1` as the molecule, how does the relative growth read?
A: inactive: 1.01

Q: How did the relative growth turn out when `Cc1noc(C)c1S(=O)(=O)Nc1ccc2c(c1)C(=O)N([C@@H](C)CO)C[C@H](C)[C@H](CN(C)CC1CC1)O2` was run?
A: inactive: 0.999

Q: Which relative growth does the source give for `C[C@@H]1CN([C@H](C)CO)C(=O)c2cccc(NC(=O)Nc3ccc(F)cc3)c2O[C@@H]1CN(C)Cc1ccc(Oc2ccccc2)cc1` here?
A: inactive: 1.05

Q: Which relative growth does the source give for `C[C@@H]1CCCCO[C@@H](CN(C)Cc2ccncc2)[C@H](C)CN([C@@H](C)CO)C(=O)c2cc(NS(=O)(=O)c3ccc(Cl)cc3)ccc2O1` here?
A: inactive: 1.01

Q: For `C[C@@H]1CN([C@@H](C)CO)S(=O)(=O)c2ccc(C#Cc3cccc(F)c3)cc2O[C@H]1CN(C)S(=O)(=O)c1ccccc1F`, which relative growth is on record?
A: inactive: 0.97

Q: For `CC(C)CC#Cc1ccc2c(c1)O[C@H](CN(C)Cc1cncnc1)[C@H](C)CN([C@@H](C)CO)S2(=O)=O`, which relative growth is on record?
A: inactive: 1.01

Q: Which relative growth does the source give for `N#C/C(=C\c1ccc(C(F)(F)F)cc1)c1c[nH]c2ccccc12` here?
A: inactive: 1.02

Q: Which relative growth does the source give for `O=C(c1ccccc1F)N1c2ccccc2Sc2ccccc21` here?
A: inactive: 1.01

Q: With `C[C@@H]1CN([C@@H](C)CO)C(=O)c2cc(NS(=O)(=O)c3ccc(Cl)cc3)ccc2O[C@@H]1CN(C)Cc1ccc(C(F)(F)F)cc1` as the molecule, how does the relative growth read?
A: inactive: 1.02

Q: With `C[C@@H]1CN([C@@H](C)CO)C(=O)Cc2cc(NS(=O)(=O)c3ccccc3)ccc2O[C@H]1CN(C)Cc1ccc(C(=O)O)cc1` as the molecule, how does the relative growth read?
A: inactive: 0.986

Q: Which relative growth does the source give for `C[C@@H]1CN([C@H](C)CO)C(=O)c2cc(NC(=O)C3CC3)ccc2O[C@H]1CN(C)Cc1ccc2c(c1)OCO2` here?
A: inactive: 0.997

Q: For `C[C@@H]1CCCCO[C@H](CN(C)Cc2ccc3c(c2)OCO3)[C@@H](C)CN([C@@H](C)CO)C(=O)c2cc(NC(=O)CCC(F)(F)F)ccc2O1`, which relative growth is on record?
A: inactive: 1.01

Q: With `CN1C(=O)c2cc(NC(=O)c3cccs3)ccc2OC[C@H]2O[C@H](CC(=O)NCCN3CCCCC3)CC[C@H]21` as the molecule, how does the relative growth read?
A: inactive: 1.01

Q: `CCS(=O)(=O)N1CC[C@]2(CC1)CN([C@@H](CO)c1[nH]c3cc(ccc3c12)OC)S(=O)(=O)c1cccc(c1)OC` was tested. Which relative growth did it give?
A: inactive: 0.986

Q: `C[C@H](CO)N1C[C@H](C)[C@@H](CN(C)S(C)(=O)=O)Oc2ccc(NS(C)(=O)=O)cc2C1=O` was tested. Which relative growth did it give?
A: inactive: 0.898

Q: How did the relative growth turn out when `CCCNC(=O)Nc1ccc2c(c1)C(=O)N(C)C[C@H](OC)[C@H](C)CN(Cc1ccc(-c3ccccn3)cc1)[C@@H](C)CO2` was run?
A: inactive: 1.01

Q: For `C[C@@H]1CN([C@H](C)CO)C(=O)Cc2cc(NC(=O)CCN3CCOCC3)ccc2O[C@@H]1CN(C)Cc1ccc(C(=O)Nc2ccccc2N)cc1`, which relative growth is on record?
A: inactive: 0.991

Q: `Cc1noc(C)c1NC(=O)N(C)C[C@@H]1Oc2ccc(NC(=O)Nc3cccc4ccccc34)cc2C(=O)N([C@@H](C)CO)C[C@H]1C` was tested. Which relative growth did it give?
A: inactive: 0.988

Q: `C[C@@H]1CN([C@@H](C)CO)C(=O)c2cc(NS(=O)(=O)c3cn(C)cn3)ccc2O[C@@H](C)CCCCO[C@@H]1CN(C)C(=O)CCCN(C)C` was tested. Which relative growth did it give?
A: inactive: 0.917

Q: How did the relative growth turn out when `C=C[C@](C)(O)CCC=C(C)C` was run?
A: inactive: 0.986

Q: Which relative growth does the source give for `CC(C)(C)[S@@](=O)N1Cc2cc(C(=O)N3CCCCC3)nc(-c3cccc(-c4ccccc4F)c3)c2[C@H]1CCO` here?
A: inactive: 1

Q: `C[C@@H]1CN([C@H](C)CO)C(=O)c2cc(NC(=O)CCC(F)(F)F)ccc2O[C@H]1CN(C)Cc1ccc(Oc2ccccc2)cc1` was tested. Which relative growth did it give?
A: inactive: 0.998

Q: How did the relative growth turn out when `C=CC(=O)N1C[C@@H]2CC[C@H](O)[C@@H]2C1` was run?
A: inactive: 1

Q: Which relative growth does the source give for `Cn1c(-c2ccccc2)c[nH]c1=S` here?
A: inactive: 1.01

Q: For `CC(C)[Si](OCC[C@H]1O[C@]2(C(=O)N(Cc3ccccc3)c3ccccc32)[C@@H](C)[C@@H]1[Si](C)(C)O)(C(C)C)C(C)C`, which relative growth is on record?
A: inactive: 1.01

Q: For `C[C@@H]1CN([C@@H](C)CO)C(=O)Cc2cc(NC(=O)Nc3ccc(C(F)(F)F)cc3)ccc2O[C@H]1CN(C)Cc1ccc(C(=O)O)cc1`, which relative growth is on record?
A: inactive: 0.938

Q: With `COc1cc2nccc(Oc3ccc(NC(=O)C4(C(=O)Nc5ccc(F)cc5)CC4)cc3)c2cc1OC` as the molecule, how does the relative growth read?
A: inactive: 0.971

Q: For `Cc1ncc([N+](=O)[O-])n1CC(O)CCl` (stereo not given), which relative growth is on record?
A: inactive: 1.1

Q: Which relative growth does the source give for `C[C@@H]1CN([C@@H](C)CO)C(=O)c2cccc(NC(=O)c3ccc(-c4nccs4)cc3)c2O[C@H]1CN(C)Cc1ccc(C(F)(F)F)cc1` here?
A: inactive: 1.01

Q: `COc1ccc(NC(=O)N(C)C[C@H]2Oc3ncc(C#CC(C)C)cc3C(=O)N([C@@H](C)CO)C[C@H]2C)cc1` was tested. Which relative growth did it give?
A: inactive: 1.03

Q: How did the relative growth turn out when `O=C(/C=C/c1ccc(O)c(O)c1)O[C@]1(C(=O)O)C[C@@H](O)[C@H](O)[C@H](O)C1` was run?
A: inactive: 1.03

Q: How did the relative growth turn out when `COc1ccc(CN(C)C[C@H]2OCCCC[C@@H](C)Oc3ccc(NC(=O)C4CCCCC4)cc3C(=O)N([C@H](C)CO)C[C@H]2C)cc1` was run?
A: inactive: 0.995

Q: For `C[C@H]1CN([C@@H](C)CO)C(=O)Cc2cc(NC(=O)Nc3ccc(C(F)(F)F)cc3)ccc2O[C@H]1CN(C)Cc1ccc(C(=O)O)cc1`, which relative growth is on record?
A: inactive: 0.974

Q: Which relative growth does the source give for `C[C@@H]1CN([C@@H](C)CO)C(=O)c2cc(NS(=O)(=O)c3ccccc3)ccc2O[C@@H](C)CCCCO[C@H]1CN(C)C(=O)Nc1ccc(C(F)(F)F)cc1` here?
A: inactive: 0.995
